In PMC10726135 one finds binding signal (log2 normalized intensity) data, which are given here for 73 sequences.

The other results are listed elsewhere or left out. At the low end of the ranking, values are background and their order means little. Measured with an extract: partners may take part in the binding.

This assay deals with T1, HNF4alpha8 (COS-7 nuclear extract) (UniProt P41235-5).
T1 sequence: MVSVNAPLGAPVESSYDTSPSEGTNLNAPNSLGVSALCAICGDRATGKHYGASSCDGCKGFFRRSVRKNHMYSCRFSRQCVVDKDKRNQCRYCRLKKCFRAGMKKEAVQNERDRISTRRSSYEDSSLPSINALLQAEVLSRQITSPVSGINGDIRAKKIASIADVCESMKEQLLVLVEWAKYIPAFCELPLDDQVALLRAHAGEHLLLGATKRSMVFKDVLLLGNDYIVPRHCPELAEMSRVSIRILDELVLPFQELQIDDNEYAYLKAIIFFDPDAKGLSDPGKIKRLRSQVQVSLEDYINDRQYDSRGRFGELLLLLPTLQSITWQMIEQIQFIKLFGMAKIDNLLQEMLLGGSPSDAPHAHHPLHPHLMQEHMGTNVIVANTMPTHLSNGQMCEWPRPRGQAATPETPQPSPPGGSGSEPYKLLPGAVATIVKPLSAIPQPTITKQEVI
Briefly: protein-binding microarray. The following applies: COS-7 nuclear extract on double-stranded Agilent 4x180k PBM; binding buffer, salt, pH and temperature not given; high values mean tight binding; double strand, one strand shown; sequences stand for … in …GCCTAGGGAGATTAGAGTATCGGTCGA
Regarding CCAGCAGATGAGCCTGTTGGGAGCCAGGCA, the binding signal (log2 normalized intensity) was -1.33.
As for ACCTTTGCCCTTGACTTTTTGTGGGGGCAG, the figure is 3.39.
With CAGGCCGGCTTGCGTCCCCAGGTGAACTCA the figure was 1.98; with TCACAATTAAGCCAAACTTGGGTTTATGGC, -0.0156.
As for GACCCAGGAGGAGAAGGGTGGGAATTGGGA, the binding signal (log2 normalized intensity) is -1.31.
Turning to TCTGCAAGGCAACTGACCTTTGGATCTGGG, the binding signal (log2 normalized intensity) came out at 8.01.
AAGATGGGCATTAGGTGGACAGGGGTGTGT: the binding signal (log2 normalized intensity) was found to be 1.4.
Turning to TTGGCAAGTTAATGTGGCCTAATGTTTGTG, the binding signal (log2 normalized intensity) is 1.93.
For TATCTTGTCTCTTCTTGTACCTCTGGTGAT, the binding signal (log2 normalized intensity) came out at 2.08.
Take AAGGTAGGCAGAGAGGCTGCTCAGTTTAAG: the binding signal (log2 normalized intensity) is -1.37.
Turning to CAGGACTCTGGGACCGCAGGGGGCTCCCGG, the binding signal (log2 normalized intensity) was -1.23.
In the case of CTCTCATAAAAGAGGCCAATTTCTTGTCTG, the binding signal (log2 normalized intensity) was -0.0911.
With CACTCCCAGTCCAGATATAGGGGAGGTCCT the figure was -0.831; with ATTATGCACCCGTGGTTGATCAAAGGTTGG, 3.38.
Take CACAGGAAAGGAGACTAAAGGTCAAAACCA: the binding signal (log2 normalized intensity) is 4.27.
Take GGGTTACCGGCAGAGAGAAGCCACTGCGAC: the binding signal (log2 normalized intensity) is -1.22.
For AGTGTAAGGACATTGCCCCCTATGTAAAGG, the binding signal (log2 normalized intensity) came to 4.09.
As to AATAAGCATTCTGTTTCCTACTGACCTCCG, the binding signal (log2 normalized intensity) came out at 3.2.
Turning to TGCGAGGTTACAGGGTTCAACACGTGGTAT, the binding signal (log2 normalized intensity) was 2.55.
With AAGGCCTTTCATACGTTTAACAGTTCCTCC, the binding signal (log2 normalized intensity) was -1.22.
For AGAGGAATTGTTCAACATGGTGACTCTAGT, the binding signal (log2 normalized intensity) was -0.284.
Consider AGACCTTTGGGTAGGAATAGAGCTCTAAAC, for which the binding signal (log2 normalized intensity) was -1.1.
As for CTTCCAAGGCTGCAAGCAAACCTGCCCTTT, the binding signal (log2 normalized intensity) amounted to 4.57.
For GGCCAACACCAAGCAAGCTCTGCAATAGAG, the binding signal (log2 normalized intensity) is -1.35.
On to GAATCCAGGCCAACTGGAAGTCCAGCATTC, for which the binding signal (log2 normalized intensity) was -1.27.
With CTATCTCAGATAGCTTTAGCCGGACTTTGT the figure was 5.85; with ACTTTCATCTGAGTCTCAGCAATTAACAGG, 0.231.
Take ATTCCTAAGTTCCAAAGGCCATCCACATTC: the binding signal (log2 normalized intensity) was determined as 2.4.
Regarding CATTCCTGCACAGGACTGCTCTCTACTCAG, the binding signal (log2 normalized intensity) is -1.27.
Take AGTGTTTCAAAGGAGTGTCTTTCTCCTTGA: the binding signal (log2 normalized intensity) is 1.38.
With TAATAACAGACCATGCCATGCATTTCAGAA the figure was -1.18; with TATTTGATGATGAAGCAACATTAAACACTA, -1.34; with GCCCCAGGTGAACCAGGGTGCAATTCGCAT, -0.837.
With CTTCGCAGCCCAGTGGTAATGGAGCTGAAA the figure was -1.12.
Take CAGCTTCATTCCAGCCCCATTCTGTGCTGG: the binding signal (log2 normalized intensity) is -1.09.
In the case of CACCCTTTTTTTTCTTTCTTTTCCCAAACC, the binding signal (log2 normalized intensity) came to 1.32.
Turning to TCACTATCTGGGCCAAGGCAGATATACCAG, the binding signal (log2 normalized intensity) is -1.34.
As for GTGTGACTGAGGGCTGACATGTCTTCTCTC, the figure is -0.81; as for GAGAAGAAATGATGGGTGCCACTTCTGAGC, -1.35; as for GTGCGTTCATCTCACAGAGTGGAGTCTTCC, -1.32.
As for ACAAGAATGGTCATTCTCTGTTGCATGGTT, the binding signal (log2 normalized intensity) was found to be 0.996.
As to GGCTTTAGAGTTGTAGCTCTCAGCTCCTAC, the binding signal (log2 normalized intensity) was -1.25.
As for TGCAGCAAAGTCCAGGCATACTTCCTGCTC, the figure is -1.33.
With TGGGAGTTGTGGTCCGCAGGGCTGCCTCGC the figure was -1.27.
Regarding GGTGGGCACCCCTGCCCCCATGTTGTTCAA, the binding signal (log2 normalized intensity) is 3.93.
On to CCGCTGATCCCGGGAGGGAGAGAAGGACAT, for which the binding signal (log2 normalized intensity) was -1.32.
For the sequence CCCTATTGGGCTAGCCGCTCCTCCCACGTC, the binding signal (log2 normalized intensity) is -1.27.
As to GACCTTTGGACTTGATAGAGTTTAAGTCTT, the binding signal (log2 normalized intensity) came to 7.2.
With AGCTTTATCTCTCCCCCACCACTGCTTCCT the figure was 3.59.
As to GCATCAGCCGGTGCAAAGGCCTTAAAGTGT, the binding signal (log2 normalized intensity) stood at 0.625.
On to TCAGGTGTTGCTCTCTTGCCATTCGTGGAT, for which the binding signal (log2 normalized intensity) amounted to 0.994.
On to TGCAGCCCTGCCACTCTTTTTTAGACTTTG, for which the binding signal (log2 normalized intensity) was 4.39.
In the case of TTCTCCAGGAAGTTCAGGCCTCGGCTTCAT, the binding signal (log2 normalized intensity) was -1.22.
Turning to TTGGACTCTATAGCCTATGCTTTGTATTTT, the binding signal (log2 normalized intensity) turned out to be 3.19.
CTATTTGCTAATGTCCTTTGGAGTGCTTTC: the binding signal (log2 normalized intensity) came out at 2.01.
In the case of GTTAGGTTGTGATACCCTCATTTTAGAGAT, the binding signal (log2 normalized intensity) was -0.224.
For the sequence TCTTTAAGGACCACATCAAAGGTCATCTCT, the binding signal (log2 normalized intensity) was 5.09.
For the sequence GAGGGATTACCCTATGTCCCCCGACCCGCC, the binding signal (log2 normalized intensity) turned out to be 5.1.
As for ATTTGCCCTGAAGACATGAAAAGTGGAATG, the binding signal (log2 normalized intensity) was 1.02.
As for TTTAAGTGGGGTCAAAGGGTACAAATTCCA, the binding signal (log2 normalized intensity) came out at 5.4.
Regarding TCGGTAGGCTTAGGCCAGGCGGAGCACACC, the binding signal (log2 normalized intensity) is -1.35.
As for GGGCAAGTTACTTAAGCCATCTGCTGCCTC, the figure is -1.41.
Turning to GGTGAGGGTTACAGGTGGACAAACAGGCTG, the binding signal (log2 normalized intensity) was -1.27.
On to AGCAGTGCCCAAAGCCCAAGGGATGTCCAT, for which the binding signal (log2 normalized intensity) is -1.28.
GATAAGGATTCCTGGAATGTTTGAGCTGGG: the binding signal (log2 normalized intensity) was -0.533.
With TCAGTAAATCTGCACTTTACGTAAGATAAG the figure was -1.13; with GGTCGCGCCGGGCGCCGCTCTGAGTGACCT, 3.23.
With ATGGAAGGACCTTGGACTGAAGACTGGAAC, the binding signal (log2 normalized intensity) was 3.17.
Take GCAATGGCTGGGTCTAAGGGCAAGTGACTG: the binding signal (log2 normalized intensity) was found to be 0.265.
Turning to ACTGGATGGTGCCTATTTGTCCCTGACCAA, the binding signal (log2 normalized intensity) is 0.867.
Consider GTGTAACTATTACTGGACAGCCAGCTGGTA, for which the binding signal (log2 normalized intensity) was -1.36.
On to TTTTTGGTTCCCCTTCCCCCAACAGGGCTC, for which the binding signal (log2 normalized intensity) was 4.45.
For CAAGCAATGGAGAGGATTTTGGAATGTCGC, the binding signal (log2 normalized intensity) worked out at 0.879.
